These results are taken from PubChem BioAssay AID2685 (National Center for Advancing Translational Sciences (NCATS), 2010).

Hit rate of the full screen: of about 320,000 compounds, about 2,100 (0.66%) were called active. Not shown: some 53% with an inconclusive outcome. The call rests on the fitted dose curve; in most records, active means well fitted inhibition curve with a large enough effect in the signal ratio, with a control signal flat (not every such curve was filed as active); inconclusive means small, poorly fitted or top-dose-only effect, or effect the other way, or a change in a side signal; inactive means flat fitted curve, though single readings scatter; the % refers to the signal ratio. Some structures have more than one record in an assay (separate samples or runs), and their calls can disagree. Not every entry of the source has a single result; some have several. This is not the full list of results. The source may hold further records. The records of an entry are repeated measurements in other runs, samples, wells, individuals or studies. Brackets tell where a record comes from. The letters are not those of the source and start again with each entry.
Potency means the concentration at half of the fitted maximal effect.

This experiment can be described thus: qHTS Assay for Lipid Storage Modulators in Drosophila S3 Cells. As to conditions: BODIPY lipid droplet fluorescence, 18-24 h, cells fed with added oleic acid; series mostly up to 46.1 µM.
`O[C@@H]1CCCC[C@H]1N1CCC(c2ccccc2)CC1`: the Potency entry was “active: 2.59 µM [sample A] and inactive [sample B]”.
